Experimental data as given in paper PMC5797217, “UFD-2 is an adaptor-assisted E3 ligase targeting unfolded proteins” (Nature Communications, 2018).
These are yes or no findings as the source states them, for the method shown. Some entries that bind do so weakly or less than the wild type. Tags and fused reporters may be left off the sequences shown.

Experiments:
[1] = biological target: T1, C. elegans MHC-B motor domain (1-790), His6-tagged (C. elegans) (UniProt P02566); assay: two-step affinity co-purification + SEC; UNC-45 and MHC-B motor domain co-expressed in High Five cells; NiNTA by the His6-tag on myosin, then Streptactin by the Twin-Strep-tag on UNC-45, then Superdex 200 in 20 mM Tris pH 8.0, 150 mM NaCl
T1 sequence: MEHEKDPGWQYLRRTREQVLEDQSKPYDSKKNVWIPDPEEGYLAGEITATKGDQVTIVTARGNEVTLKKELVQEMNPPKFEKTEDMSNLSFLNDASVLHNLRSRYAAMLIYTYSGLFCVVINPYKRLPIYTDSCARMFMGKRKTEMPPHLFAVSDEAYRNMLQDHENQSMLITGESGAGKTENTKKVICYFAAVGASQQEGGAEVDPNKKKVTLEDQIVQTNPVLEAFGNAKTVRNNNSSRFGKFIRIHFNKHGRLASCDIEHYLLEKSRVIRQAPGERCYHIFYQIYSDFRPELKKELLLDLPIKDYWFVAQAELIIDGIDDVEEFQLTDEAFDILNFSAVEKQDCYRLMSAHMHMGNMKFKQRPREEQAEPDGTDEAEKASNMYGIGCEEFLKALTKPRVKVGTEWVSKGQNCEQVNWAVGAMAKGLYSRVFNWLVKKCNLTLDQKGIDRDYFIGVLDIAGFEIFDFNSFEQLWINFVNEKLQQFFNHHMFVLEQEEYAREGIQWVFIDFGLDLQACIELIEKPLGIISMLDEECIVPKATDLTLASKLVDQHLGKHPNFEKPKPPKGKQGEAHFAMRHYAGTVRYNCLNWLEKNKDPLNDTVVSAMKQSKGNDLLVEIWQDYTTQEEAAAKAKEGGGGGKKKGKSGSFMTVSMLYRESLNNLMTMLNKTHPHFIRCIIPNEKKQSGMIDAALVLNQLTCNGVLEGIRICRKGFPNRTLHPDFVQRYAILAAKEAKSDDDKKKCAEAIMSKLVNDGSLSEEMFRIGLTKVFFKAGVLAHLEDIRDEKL

[2] = biological target: T2, C-terminally Strep-tagged UFD-2 (C. elegans), Q09349; assay: pull-down; three proteins: His6-tagged UNC-45 pre-incubated with myosin (MHC-B motor domain) 60 min 27 °C, then with Strep-UFD-2 60 min 30 °C; Strep-Tactin beads; 5 µM protein; 20 mM Tris pH 7.5, 50 mM NaCl; Coomassie; both purified; conditions: remark: other sources report otherwise
T2 chain: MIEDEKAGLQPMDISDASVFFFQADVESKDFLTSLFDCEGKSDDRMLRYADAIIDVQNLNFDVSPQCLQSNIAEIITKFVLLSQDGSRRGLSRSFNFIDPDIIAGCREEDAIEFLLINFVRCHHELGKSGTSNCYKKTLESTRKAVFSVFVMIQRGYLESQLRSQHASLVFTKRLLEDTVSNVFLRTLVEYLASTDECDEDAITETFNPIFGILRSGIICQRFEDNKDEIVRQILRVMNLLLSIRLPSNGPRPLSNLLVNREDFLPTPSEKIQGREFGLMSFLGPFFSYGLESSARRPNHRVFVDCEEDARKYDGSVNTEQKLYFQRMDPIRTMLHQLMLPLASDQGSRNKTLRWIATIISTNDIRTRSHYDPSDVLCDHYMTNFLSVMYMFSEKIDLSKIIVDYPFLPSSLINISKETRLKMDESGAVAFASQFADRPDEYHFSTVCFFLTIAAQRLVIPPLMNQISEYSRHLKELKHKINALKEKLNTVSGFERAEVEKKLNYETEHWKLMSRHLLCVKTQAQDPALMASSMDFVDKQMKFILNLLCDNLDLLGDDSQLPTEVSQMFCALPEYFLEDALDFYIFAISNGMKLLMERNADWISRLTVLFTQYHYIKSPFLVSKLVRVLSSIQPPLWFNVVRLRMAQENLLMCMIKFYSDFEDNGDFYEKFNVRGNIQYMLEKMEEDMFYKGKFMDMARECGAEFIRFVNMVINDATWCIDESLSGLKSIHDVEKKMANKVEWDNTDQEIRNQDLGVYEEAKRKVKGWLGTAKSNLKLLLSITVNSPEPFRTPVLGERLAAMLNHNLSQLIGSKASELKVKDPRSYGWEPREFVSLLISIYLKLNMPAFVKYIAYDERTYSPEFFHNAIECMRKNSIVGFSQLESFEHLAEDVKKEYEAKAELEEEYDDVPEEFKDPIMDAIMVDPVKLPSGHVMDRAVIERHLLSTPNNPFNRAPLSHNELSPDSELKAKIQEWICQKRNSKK

[3] = biological target: T2, C-terminally Strep-tagged UFD-2 (C. …); assay: pull-down; Strep-UFD-2 held on Strep-Tactin Superflow beads; His6-tagged UNC-45 proteins pre-incubated 60 min 27 °C, then with UFD-2 60 min 30 °C; 5 µM protein; 20 mM Tris pH 7.5, 50 mM NaCl; elution with desthiobiotin, Coomassie; both purified; conditions: remark: other sources report otherwise

B1: UNC-45 with N-terminal Twin-Strep-tag (co-expressed with myosin in insect cells) (protein, UniProt G5EG62 1-961)
chain: MVARVQTAEEIRDEGNAAVKDQDYIKADELYTEALQLTTDEDKALRPVLYRNRAMARLKRDDFEGAQSDCTKALEFDGADVKALFRRSLAREQLGNVGPAFQDAKEALRLSPNDKGIVEVLQRLVKANNDKIKQTTSLANKVTDMEKLAFRGEAKDTEQKMTALNNLLVLCRESESGATGVWNQGALVPFVLNLINDASENEEVTVTAIRILDETIKNSVRCMKFLAMHDPDGPKSVRFVCRLMCKKSTKDFVDATGILVQRVFNAMAKMDRQKEMKPDPEVAEANKIWIIRVLLELQEMLQDPKVGAVQRETCIDLFLKNLMHMDGGIPRGWSWKFVEERGLLALLDVASQIPELCEYPVSAETRQHVAICLQRLEEDMVFDTKRTIFKEKVDMFFNALISRCTNDDEGHKYRIKLSCFLITMLQGPVDIGINLITNDQLTPIMLEMAASQDHLMQGIAAELIVATVSKHERAINMLKVGIPVLRALYDSEDPTVKVRALVGLCKIGAAGGDDISKATMKEEAVISLAKTCKKFLLETEKYSVDIRRYACEGLSYLSLDADVKEWIVDDSLLLKALVLLAKKAGALCVYTLATIYANLSNAFEKPKVDEEMVKLAQFAKHHVPETHPKDTEEYVEKRVRALVEEGAVPACVAVSKTESKNALELIARSLLAFAEYEDLRGRIIAEGGTVLCLRLTKEASGEGKIKAGHAIAKLGAKADPMISFPGQRAYEVVKPLCDLLHPDVEGKANYDSLLTLTNLASVSDSIRGRILKEKAIPKIEEFWFMTDHEHLRAAAAELLLNLLFFEKFYEETVAPGTDRLKLWVLYSAEVEEERLSRASAAGFAILTEDENACARIMDEIKSWPEVFKDIAMHEDAETQRRGLMGIANIMHSSNKLCSEIVSSEVFRVLVAVTKLGTINQERAGSTEQAKRGLEAAEKFGLIKATDREIYERENQMSTIQE
[1]
  binding: binds

B2: UNC-45 full-length, His6-tagged, G5EG62 1-961 (protein)
chain: B1 chain
[2]
  binding: binds
[3]
  binding: binds
